From the supplement of paper PMC8728848
The other results are listed elsewhere or left out.

Key:
Test in all cases: glycan array binding signal (z-score within array); higher = stronger binding
Conditions in all cases: glycan notation: IUPAC condensed, linker removed
[1] = biological target: Neu5Ac(a2-6)Gal(b1-4)GlcNAc(b1-3)Gal(b1-4)GlcNAc(b1-2)Man(a1-3)[Neu5Ac(a2-6)Gal(b1-4)GlcNAc(b1-3)Gal(b1-4)GlcNAc(b1-2)Man(a1-6)]GalNAc
Summary of the method: (§1)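 Glycan array data came from 3228 arrays in the Consortium for Functional Glycomics database, and only arrays with an available protein sequence were kept. Glycan names were put into IUPAC-condensed notation, and columns mapping to the same glycan were averaged. The binding signal is a within-array Z-score, averaged across arrays of one protein sequence run at different concentrations or buffers and across linkers. A negative Z-score can be read as non-binding.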

[2] = biological target: Neu5Ac(a2-6)Gal(b1-4)GlcNAc(b1-3)Gal(b1-4)GlcNAc(b1-3)Gal(b1-4)GlcNAc
Summary of the method: as §1

[3] = biological target: Neu5Ac(a2-6)Gal(b1-4)GlcNAc(b1-3)Gal(b1-4)GlcNAc(b1-3)Gal(b1-4)GlcNAc(b1-2)Man(a1-3)[Neu5Ac(a2-6)Gal(b1-4)GlcNAc(b1-3)Gal(b1-4)GlcNAc(b1-3)Gal(b1-4)GlcNAc(b1-2)Man(a1-6)]GalNAc
Summary of the method: as §1

[4] = biological target: Neu5Ac(a2-6)Gal(b1-4)GlcNAc(b1-3)Gal(b1-4)GlcNAc(b1-3)GalNAc
Summary of the method: as §1

[5] = biological target: Neu5Ac(a2-6)Gal(b1-4)GlcNAc(b1-3)Gal(b1-4)GlcNAc(b1-3)[Neu5Ac(a2-6)Gal(b1-4)GlcNAc(b1-3)Gal(b1-4)GlcNAc(b1-6)]GalNAc
Summary of the method: as §1

[6] = biological target: Neu5Ac(a2-6)Gal(b1-4)GlcNAc(b1-3)Gal(b1-4)GlcNAc(b1-6)[Gal(b1-3)]GalNAc
Summary of the method: as §1

[7] = biological target: Neu5Ac(a2-6)Gal(b1-4)GlcNAc(b1-3)Gal(b1-4)[Fuc(a1-3)]GlcNAc(b1-3)Gal(b1-4)[Fuc(a1-3)]GlcNAc
Summary of the method: as §1

[8] = biological target: Neu5Ac(a2-6)Gal(b1-4)GlcNAc(b1-3)GalNAc
Summary of the method: as §1

[9] = biological target: Neu5Ac(a2-6)Gal(b1-4)GlcNAc(b1-3)[Neu5Ac(a2-6)Gal(b1-4)GlcNAc(b1-6)]GalNAc
Summary of the method: as §1

[10] = biological target: Neu5Ac(a2-6)Gal(b1-4)GlcNAc(b1-6)GalNAc
Summary of the method: as §1

[11] = biological target: Neu5Ac(a2-6)Gal(b1-4)GlcNAc(b1-6)[Gal(b1-3)GlcNAc(b1-3)]Gal(b1-4)Glc
Summary of the method: as §1

[12] = biological target: Neu5Ac(a2-6)Gal(b1-4)GlcNAc(b1-6)[Gal(b1-3)]GalNAc
Summary of the method: as §1

[13] = biological target: Neu5Ac(a2-6)Gal(b1-4)GlcNAc6S
Summary of the method: as §1

[14] = biological target: Neu5Ac(a2-6)GalNAc
Summary of the method: as §1

[15] = biological target: Neu5Ac(a2-6)GalNAc(b1-4)GlcNAc
Summary of the method: as §1

[16] = biological target: Neu5Ac(a2-6)GalNAc(b1-4)GlcNAc6S
Summary of the method: as §1

[17] = biological target: Neu5Ac(a2-6)GlcNAc(b1-4)GlcNAc
Summary of the method: as §1

[18] = biological target: Neu5Ac(a2-6)GlcNAc(b1-4)GlcNAc(b1-4)GlcNAc
Summary of the method: as §1

[19] = biological target: Neu5Ac(a2-8)Neu5Ac
Summary of the method: as §1

[20] = biological target: Neu5Ac(a2-8)Neu5Ac(a2-3)Gal(b1-3)GalNAc(b1-4)[Neu5Ac(a2-3)]Gal(b1-4)Glc
Summary of the method: as §1

[21] = biological target: Neu5Ac(a2-8)Neu5Ac(a2-3)Gal(b1-3)GalNAc(b1-4)[Neu5Ac(a2-8)Neu5Ac(a2-3)]Gal(b1-4)Glc
Summary of the method: as §1

[22] = biological target: Neu5Ac(a2-8)Neu5Ac(a2-3)Gal(b1-4)Glc
Summary of the method: as §1

[23] = biological target: Neu5Ac(a2-8)Neu5Ac(a2-3)Gal(b1-4)GlcNAc
Summary of the method: as §1

[24] = biological target: Neu5Ac(a2-8)Neu5Ac(a2-3)[Gal(b1-3)GalNAc(b1-4)]Gal(b1-4)Glc
Summary of the method: as §1

[25] = biological target: Neu5Ac(a2-8)Neu5Ac(a2-3)[GalNAc(b1-4)]Gal(b1-4)Glc
Summary of the method: as §1

[26] = biological target: Neu5Ac(a2-8)Neu5Ac(a2-8)Neu5Ac
Summary of the method: as §1

[27] = biological target: Neu5Ac(a2-8)Neu5Ac(a2-8)Neu5Ac(a2-3)Gal(b1-4)Glc
Summary of the method: as §1

[28] = biological target: Neu5Ac(a2-8)Neu5Ac(a2-8)Neu5Ac(a2-3)[Gal(b1-3)GalNAc(b1-4)]Gal(b1-4)Glc
Summary of the method: as §1

[29] = biological target: Neu5Ac(a2-8)Neu5Ac(a2-8)Neu5Ac(a2-3)[GalNAc(b1-4)]Gal(b1-4)Glc
Summary of the method: as §1

[30] = biological target: Neu5Ac(a2-8)Neu5Ac(a2-8)Neu5Ac(a2-8)Neu5Ac(a2-3)[GalNAc(b1-4)]Gal(b1-4)Glc
Summary of the method: as §1

[31] = biological target: Neu5Ac(a2-8)Neu5Gc(a2-3)Gal(b1-4)GlcNAc
Summary of the method: as §1

[32] = biological target: Neu5Ac(b2-6)Gal(b1-4)GlcNAc
Summary of the method: as §1

[33] = biological target: Neu5Ac(b2-6)GalNAc
Summary of the method: as §1

[34] = biological target: Neu5Ac9Ac(a2-3)Gal(b1-3)GlcNAc
Summary of the method: as §1

[35] = biological target: Neu5Ac9Ac(a2-3)Gal(b1-4)GlcNAc
Summary of the method: as §1

[36] = biological target: Neu5Ac9Ac(a2-6)Gal(b1-4)GlcNAc
Summary of the method: as §1

[37] = biological target: Neu5Gc(a2-3)Gal(b1-3)GlcNAc
Summary of the method: as §1

[38] = biological target: Neu5Gc(a2-3)Gal(b1-3)[Fuc(a1-4)]GlcNAc
Summary of the method: as §1

[39] = biological target: Neu5Gc(a2-3)Gal(b1-4)Glc
Summary of the method: as §1

[40] = biological target: Neu5Gc(a2-3)Gal(b1-4)GlcNAc
Summary of the method: as §1

[41] = biological target: Neu5Gc(a2-3)Gal(b1-4)GlcNAc(b1-3)Gal(b1-4)GlcNAc(b1-2)Man(a1-3)[Neu5Gc(a2-3)Gal(b1-4)GlcNAc(b1-3)Gal(b1-4)GlcNAc(b1-2)Man(a1-6)]Man(b1-4)GlcNAc(b1-4)GlcNAc
Summary of the method: as §1

[42] = biological target: Neu5Gc(a2-3)Gal(b1-4)[Fuc(a1-3)]GlcNAc
Summary of the method: as §1

[43] = biological target: Neu5Gc(a2-3)Gal(b1-4)[Fuc(a1-4)]GlcNAc
Summary of the method: as §1

[44] = biological target: Neu5Gc(a2-6)Gal(b1-4)GlcNAc
Summary of the method: as §1

[45] = biological target: Neu5Gc(a2-6)GalNAc
Summary of the method: as §1

[46] = biological target: Neu5Gc(a2-8)Neu5Ac(a2-3)Gal(b1-4)GlcNAc
Summary of the method: as §1

[47] = biological target: Neu5Gc(a2-8)Neu5Gc(a2-3)Gal(b1-4)GlcNAc
Summary of the method: as §1

[48] = biological target: Neu5Gc(a2-8)Neu5Gc(a2-3)Gal(b1-4)GlcNAc(b1-3)Gal(b1-4)GlcNAc
Summary of the method: as §1

[49] = biological target: Neu5Gc(a2-8)Neu5Gc(a2-6)Gal(b1-4)GlcNAc
Summary of the method: as §1

[50] = biological target: Neu5Gc(b2-6)Gal(b1-4)GlcNAc
Summary of the method: as §1

B1: Nictaba (Nicotiana tabacum), Q94EW1 (protein)
chain: MQGQWIAARDLSITWVDNPQYWTWKTVDPNIEVAELRRVAWLDIYGKIETKNLIRKTSYAVYLVFKLTDNPRELERATASLRFVNEVAEGAGIEGTTVFISKKKKLPGELGRFPHLRSDGWLEIKLGEFFNNLGEDGEVEMRLMEINDKTWKSGIIVKGFDIRPN
glycan array binding signal (z-score) [1]: 1.27
glycan array binding signal (z-score) [2]: -0.286
glycan array binding signal (z-score) [3]: 0.027
glycan array binding signal (z-score) [4]: -0.386
glycan array binding signal (z-score) [5]: -0.384
glycan array binding signal (z-score) [6]: -0.383
glycan array binding signal (z-score) [7]: -0.268
glycan array binding signal (z-score) [8]: -0.263
glycan array binding signal (z-score) [9]: -0.384
glycan array binding signal (z-score) [10]: -0.381
glycan array binding signal (z-score) [11]: -0.387
glycan array binding signal (z-score) [12]: -0.386
glycan array binding signal (z-score) [13]: -0.213
glycan array binding signal (z-score) [14]: -0.295
glycan array binding signal (z-score) [15]: -0.252
glycan array binding signal (z-score) [16]: -0.388
glycan array binding signal (z-score) [17]: -0.296
glycan array binding signal (z-score) [18]: -0.259
glycan array binding signal (z-score) [19]: -0.24
glycan array binding signal (z-score) [20]: -0.385
glycan array binding signal (z-score) [21]: -0.331
glycan array binding signal (z-score) [22]: -0.236
glycan array binding signal (z-score) [23]: -0.384
glycan array binding signal (z-score) [24]: -0.3
glycan array binding signal (z-score) [25]: -0.295
glycan array binding signal (z-score) [26]: -0.28
glycan array binding signal (z-score) [27]: -0.282
glycan array binding signal (z-score) [28]: -0.384
glycan array binding signal (z-score) [29]: -0.287
glycan array binding signal (z-score) [30]: -0.244
glycan array binding signal (z-score) [31]: -0.386
glycan array binding signal (z-score) [32]: -0.273
glycan array binding signal (z-score) [33]: -0.315
glycan array binding signal (z-score) [34]: -0.317
glycan array binding signal (z-score) [35]: -0.211
glycan array binding signal (z-score) [36]: -0.303
glycan array binding signal (z-score) [37]: -0.294
glycan array binding signal (z-score) [38]: -0.273
glycan array binding signal (z-score) [39]: -0.254
glycan array binding signal (z-score) [40]: -0.212
glycan array binding signal (z-score) [41]: 0.883
glycan array binding signal (z-score) [42]: -0.366
glycan array binding signal (z-score) [43]: -0.239
glycan array binding signal (z-score) [44]: -0.286
glycan array binding signal (z-score) [45]: -0.271
glycan array binding signal (z-score) [46]: -0.386
glycan array binding signal (z-score) [47]: -0.388
glycan array binding signal (z-score) [48]: -0.388
glycan array binding signal (z-score) [49]: -0.385
glycan array binding signal (z-score) [50]: -0.289
